“And” between values parts separate entries of the source, which are not always exact repeats. Equal values may be shown once. Out of some 420,000 compounds screened, about 64,000 (15%) were called active. The inconclusive results got no clear call from the source; some entries with a clear call stand among them for comparison. Calls come from the whole dose curve; as a rule, active = well fitted inhibition curve with a large enough effect; inconclusive = small, poorly fitted or top-dose-only effect; inactive = flat fitted curve, though single readings scatter. Potencies of inconclusive entries are left out as doubtful fits. The source holds several records for some structures; these can differ, active in one and inactive in another.
experiment: qHTS for Inhibitors of human tyrosyl-DNA phosphodiesterase 1 (TDP1): qHTS in cells in absence of CPT; details: DT40 Tdp1-/- hTDP1 cells, no CPT, ATP luminescence, 48 h; activity change, negative = growth inhibition: at 46.2 µM (top of the series) unless noted; note: nearly all actives have a fitted effect of over 55% in size
In short: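 Growth kinetics read by CellTiter-Glo luminescence after ≥48 hr at 37 °C. Cells: DT40 Tdp1-/- stably carrying human TDP1, 400 per well, compound exposure in the absence of CPT (DMSO vehicle).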
% is set by controls: 0 for no effect and ±100 for the full control effect; potency is the fitted concentration of half-maximal effect; tags give direction and shape of the fitted curve.

Row | SMILES | Potency | activity change, negative = growth inhibition
1 | c1ccc(-c2ccc(OCCCn3cncn3)cc2)cc1 | inconclusive [inhibitor, single point] | –
2 | COc1ccc(S(=O)(=O)N2CC3CCCN3c3cc(C(F)(F)F)ccc32)cc1 (configuration not stated) | inconclusive [inhibitor, single point] | –
3 | CC1CCCCN1CCCNC(=O)Cn1ncc2c3ccccc3n(C)c2c1=O (configuration not stated) | inactive | –
4 | CCc1ccc(/C=C2\CN(CC)Cc3c2nc2ccccc2c3C(=O)O)cc1 | inactive | –
5 | Cc1ccc(S(=O)(=O)c2cc3cc(C(=O)Nc4ccc(C)cc4C)ccc3oc2=O)cc1 | inactive | –
6 | CC(C)c1ccc(NC(=O)Cc2cn(C)c3ccccc23)cc1 | active: 16.4 µM | –
7 | O=C(Nc1ccc2c(c1)OCO2)c1ccc2sc([C@@H]3O[C@H](CO)[C@@H](O)[C@H]3O)nc2c1 | inconclusive [inhibitor, single point] | –
8 | O=C(c1ccc(COc2ccccc2Br)o1)N1CCN(c2ccccn2)CC1 | inactive | –
9 | COc1ccc(N2CCN(CCCNC(=S)Nc3c(C)cccc3C)CC2)cc1 | inconclusive [inhibitor, partial curve] | –
10 | COc1cccc(C(=O)Oc2cc(-c3ccccc3)no2)c1 | inactive | –
11 | COc1ccc(-c2cc(C(F)(F)F)nc(NCc3ccc(F)cc3)n2)cc1 | inconclusive [inhibitor, single point] | –
12 | CCOc1ccc(NC(=O)CSc2oc(-c3ccc(C)cc3)nc2S(=O)(=O)c2ccc(C)cc2)cc1 | active: 5.8 µM | –
13 | O=C(CCn1c(=S)[nH]c2ccccc2c1=O)Nc1ccc(F)cc1 | inconclusive [inhibitor, partial curve] | –
14 | COc1ccc(-c2nc(CS(=O)CC(=O)NCc3ccc4c(c3)OCO4)c(C)o2)cc1OC (configuration not stated) | inactive | –
15 | CSc1ccccc1NC(=O)CN(C)C(=O)COc1ncnc2ccccc12 | inactive | –
16 | COc1cccc2cc(-c3cc(=O)oc4cc(C)c(OCC(C)=O)cc34)oc12 | inactive | –
17 | CCC(CO)NC1=CC(=O)CCC1 (configuration not stated) | inactive | –
18 | COc1cccc(NC(=O)CSc2ncc(S(=O)(=O)c3ccccc3)c(=O)[nH]2)c1 | inconclusive [inhibitor, single point] | –
19 | CN(C)C(=O)C1C2NC(=S)N(c3ccccc3)C1(C)Oc1ccccc12 (configuration not stated) | inactive | –
20 | O=C(Nc1ccc2c(c1)OCCO2)c1cccs1 | inactive | –
21 | Cn1nc(-c2ccccc2)cc1NC(=O)Nc1ccc(C(C)(C)C)cc1 | inconclusive [inhibitor, single point] | –
22 | Cc1cccc(Oc2sc(C(=O)c3ccccc3)c(N)c2C#N)c1C | – | inconclusive: -30.2% [inhibitor]
23 | O=C1OCCN1C(=O)[C@H]1[C@H](c2ccc(F)cc2)C(c2ccccc2)=NN1c1ccc(Br)cc1 | inconclusive [inhibitor, single point] | –
24 | CC(C)OCCCNC(=O)CCCN1C(=O)CCn2nc(-c3cccn3C)cc21 | inactive | –

Row | SMILES | Potency | activity change, negative = growth inhibition
25 | O=C(COCc1cc(-c2cccs2)on1)Nc1cc(C(F)(F)F)ccc1Cl | inconclusive [inhibitor, partial curve, poor fit] | –
26 | Cc1ccc(O)c(-c2n[nH]c3c2C(c2ccc(F)cc2)N(Cc2ccco2)C3=O)c1 (configuration not stated) | inconclusive [inhibitor, single point] | –
27 | COCC(=O)c1[nH]c2ccccc2c1C | inconclusive [inhibitor, single point] | –
28 | COc1ccc(NS(=O)(=O)c2ccc(OCC(=O)N3CCOCC3)cc2)cc1 | inconclusive [inhibitor, single point] | –
29 | O=C(COC(=O)c1cccnc1Nc1cccc(C(F)(F)F)c1)NCc1ccc2c(c1)OCO2 | inconclusive [inhibitor, single point] | –
30 | Oc1ccc(-c2nccc(-c3ccc(Br)cc3)n2)cc1 | inconclusive [inhibitor, single point] | –
31 | Cc1cc(Cl)ccc1NC(=O)CN1C(=O)NC2(CCCc3ccccc32)C1=O (configuration not stated) | inconclusive [inhibitor, single point] | –
32 | O=C(COC(=O)c1ccncc1)NCc1ccccc1 | inconclusive [inhibitor, single point] | –
33 | CCCCC(=O)Nc1ccc2oc(-c3cccnc3)nc2c1 | inconclusive [inhibitor, partial curve] | –
34 | Cc1ccc(NC(=O)c2c(Cl)nc3ccccn23)cc1 | inactive | –
35 | CCOc1ccc(N2CC(c3nc4ccccc4n3CCOc3ccccc3)CC2=O)cc1 (configuration not stated) | inconclusive [inhibitor, single point] | –
36 | COc1cc(-c2noc(C)c2C#CCO)cc(OC)c1OC | inactive and active: 12.6 µM | –
37 | O=C(Nc1ccc(N2CCOCC2)cc1)c1cccc2c(-c3ccc(F)c(F)c3)coc12 | inconclusive [inhibitor, partial curve] | –
38 | O=C(c1ccc(Br)o1)N1CCC(Cc2ccccc2)CC1 | inconclusive [inhibitor, partial curve] | –
39 | CCOC(=O)N1CCN(C(=O)c2ccc(CS(=O)Cc3ccc(C)cc3)o2)CC1 (configuration not stated) | inconclusive [inhibitor, single point] | –
40 | O=C(COc1ccccc1Cl)Nc1ccc2c(c1)OCO2 | – | inconclusive: -33.9% [inhibitor]
41 | Cc1ccccc1COn1nnc2ccc(S(=O)(=O)N3CCOCC3)cc21 | inconclusive [inhibitor, single point] | –
42 | CCc1nc(NCc2ccccn2)c2oc3ccccc3c2n1 | active: 14.6 µM | –
43 | CCCCC1=CC2=C(c3ccco3)C(=O)C(C)(OC(=O)c3ccc(OC)cc3)C(=O)C2=CN1C1CC1 (configuration not stated) | inactive | –
44 | COc1cccc2cc(C(=O)NCc3ccccc3Cl)c(=O)oc12 | inactive | –
45 | COC(=O)C1CCN(S(=O)(=O)c2ccc(Br)s2)CC1 | inactive | –
46 | CC(=O)c1cccc(NC(=O)CSc2ccc(-c3ccco3)nn2)c1 | inconclusive [inhibitor, single point] | –
47 | COC(=O)c1cc(OC)c(OC)cc1NC(=O)C1CCC(=O)N1S(=O)(=O)c1ccc(C)cc1 (configuration not stated) | active: 18.4 µM | –

From PubChem BioAssay AID686978 (National Center for Advancing Translational Sciences (NCATS), 2013)
